# Source: ChEMBL document CHEMBL4888484, “Replenishing the malaria drug discovery pipeline: Screening and hit evaluation of the MMV Hit Generation Library 1 (HGL1) against asexual blood stage Plasmodium falciparum ,using a nano luciferase reporter read-out” (2022)
# Screen size: about 150,000 compounds; about 540 (0.36%) showed an effect of 50% or more. This is one part of the list.
# Test system: Plasmodium falciparum
# Assay: Primary screen in NF54 nanoGlo assay, in single point, at 2uM, 72h; a lower Z score goes with more inhibition
# Format: functional, Erythrocyte
# Settings: timepoint 72 hour
SMILES,% Inhibition [%],Z score
CON(C)CC(O)Cn1cc(NC(=O)C2CC2c2ccc(Br)cc2)cn1 (configuration not stated),-4,0.39
CC(C)(C)C(F)(F)CNC(=O)N1CCC(n2cc(C(N)=O)nn2)CC1,-4,0.77
C[C@@H](CNC(=O)c1cnn[nH]1)c1ccccc1,-11,2.05
CCC(CC)c1n[nH]c2c1CN(C(=O)c1ccc3sc(N)nc3c1)CC2,-14,2.18
N/C(=N\c1ccccc1)N1CCOCC1,3,-0.52
O=C1C2CCCC[C@H]2c2ccccc2N1Cc1ccccc1 (some centres not stated),-11,1.31
Cc1ccc([C@@]2(C(=O)N3CCN(CCOCCO)CC3)CC2(C)C)cc1,7,-0.65
C[C@@]1(C(=O)NC2CCCCCCC2)Cn2c(ccc2-c2ccccc2)C(=O)N1Cc1cccnc1,-4,0.53
CNS(=O)(=O)CC(=O)NCc1cccc(Cl)c1F,-6,0.83
C#CCN(C)CCNS(=O)(=O)c1ccccc1,5,-0.64
Cc1ccc(CN2C(=O)C3CCCCC3C2=O)cc1S(=O)(=O)NCc1ccco1 (configuration not stated),-10,1.37
N#CCc1ccc(OCCOn2nnc3ccccc32)cc1,-3,0.64
Cc1cccnc1OC[C@H]1CCCOC1,-4,0.49
C[C@@H]1CCO[C@@H]1C(=O)NCC1CCCCC1NS(C)(=O)=O (some centres not stated),-3,0.34
CC[C@@]1(C)CN(C(=O)CCc2ccccc2C(=O)O)CCO1,-15,1.8
CCN(C(=O)c1ccnc(C(=O)O)c1)[C@@H](C)Cc1ccsc1,-9,1.15
Cc1noc(C)c1CCN1[C@@H]2C[C@H]3CC[C@]2(CS1(=O)=O)C3(C)C,-10,1.29
Cc1cc(C)n([C@@H](C)CNC(=O)c2cc(-c3c(C)nn(C)c3C)nn2C)n1,-12,1.3
Cc1c(CC(=O)N2CC[C@H](N)C2)c2c(n1Cc1ccccc1F)CCCC2=O,-22,2.4
C[C@H](NCCN1CCCCC1)c1cc(Br)ccc1F,-5,0.51
CCN1CCCC1CNC(=O)C(C)c1ccccc1 (configuration not stated),1,-0.2
COCCCNC(=O)[C@@H]1CC2(CCN(C(=O)NCCc3ccccc3)CC2)C(=O)N1C,-14,1.74

SMILES,% Inhibition [%],Z score
CCC[C@H]1CN(C(=O)CCC(F)(F)F)C[C@@H]1N(C)C,-2,0.28
N#Cc1cccc(CN2CCCCCCCC2=O)c1,-13,1.28
COc1ccc(C)nc1NCc1csc(N(C(C)=O)C2CC2)n1,-9,0.84
COc1nc(C)c(C(=O)N2CCn3nc(CO)cc3C2)s1,-14,1.51
CN(C(=O)Cn1cccc(S(=O)(=O)N2CCCC2)c1=O)C1CCCCC1,-8,1.13
Cc1cc(-c2ccccc2)n([C@H]2CCC[C@@H]2O)n1,-17,1.51
CNc1nc(NC(C2CC2)C2CC2)ncc1F,-5,0.52
NC(=O)CN1CCN(Cc2ncc(Cl)cc2Br)CC1=O,-3,0.53
Cc1ccc(C(C)(C)C(=O)N2C[C@@H]3CS(=O)(=O)C[C@@H]3C2)cc1,2,-0.33
CCc1nc(CN2CC[C@H](O)CC(C)(C)C2)no1,-7,0.94
Cc1ccc(C(=O)NCCCc2ccccc2)o1,-11,1.35
CN1CCN2C[C@@H](NS(=O)(=O)c3cccc(C(=O)NC4CC4)c3)C[C@H]2C1,2,-0.3
CN1C(=O)[C@@H]2CC[C@H]1CN(C(=O)Nc1ccccc1OCc1ccccc1)C2,-16,1.59
O=C(CC(=O)NCC(F)(F)F)NC[C@@H](c1cccc(Cl)c1)N1CCCC1,0,0.05
CC(=O)Nc1cc(Cl)c(O)c(Cl)c1Cl,-10,1.68
COc1cc(CNCc2ccccn2)cc(Br)c1OCc1cccnc1,-35,4.07
CC[C@H]1CCCN(S(=O)(=O)c2ccc3c(c2)CCC(=O)N3)C1,-9,1.53
COc1ccc(-n2nc(C)c3c(C(=O)N[C@@H](C)c4cccc(OC)c4)cc(C)nc32)cc1,0,0.07
Cc1conc1CNc1ccc(Br)c(C(F)(F)F)n1,-8,1.58
O=C(Nc1cccnn1)N1CCC(Cc2cc(F)cc(F)c2)CC1,-3,0.48
CC(C)n1c(N2CCCN(C(=O)CC3CCCCC3)CC2)cc(=O)n(C(C)C)c1=O,-3,0.59
Cc1cn2cc(Cc3nc(-c4cnn(CCF)c4)no3)nc2s1,-5,0.81

SMILES,% Inhibition [%],Z score
NC(=O)c1ccc(O[C@H]2CCOC2)nc1,1,-0.15
O=C(CNC(=O)NC1CC1)NCCc1cc(F)cc2c1OCOC2,-2,0.2
Cc1ccnc(OCC(=O)N2CCN(c3ccc(N4CCN(C)CC4)nn3)CC2)n1,3,-0.58
Cc1ccc2cc1Oc1cccc(c1)CO[C@H]1CN(C(=O)c3cccc(CCC(C)(C)O)c3)C[C@@H]1NC(=O)CN(C)C2=O,-18,2.25
CC(C)(C)OC(=O)N1CCN(Cc2nnnn2C2CC2)C2(CCCCC2)C1,-9,1.46
COCc1noc(CN2CC[C@@]3(CCCOC3)C2)n1,-10,1.22
CC(=O)c1ccc(CNC(=O)[C@@H](C)Cc2c(C)n[nH]c2C)nc1C,-1,0.12
Cc1cc(C)n2cc(CN3CCN(Cc4cc(C)on4)CC3)nc2n1,-12,1.9
Cc1cc(C)cc(N2CCN(C(=O)NC[C@@]3(C)CCCO3)CC2=O)c1,-3,0.64
Cc1c(N2C(=O)CN(CCc3ccccc3)C2=O)cccc1C(F)(F)F,12,-1.12
C[C@H](NCC(=O)Nc1ccncc1)c1cccc(Br)c1,6,-0.68
Cc1noc(C)c1C(=O)O[C@@H](C)C(=O)Nc1ccc2c(c1)OCCO2,-14,1.31
FC(F)(F)CNC1CC(Nc2cnccn2)C1 (configuration not stated),-3,0.48
O=C(COc1ccccc1F)OCCN1CCCC1,-7,1.01
OCCN1CCN(C2CCCCCC2)CC1,-9,1.78
CC(C)[C@H](NCc1cccc(C#N)c1)[C@H](O)C(F)(F)F,-7,1.35
COc1cccc(C)c1C(=O)N1CCC[C@H]1C(=O)N1CCCCC1,-9,1.15
CS(=O)(=O)N1CCN(C(=O)c2cc(-c3cccnc3)nc3ccccc23)CC1,1,-0.11
COc1ccc2cc1Oc1cccc(c1)CO[C@H]1CN(C(=O)c3cc(C)nc(C)c3)C[C@@H]1NC(=O)CN(C)C2,-4,0.89
CC(C)c1noc([C@H](C)N2CCCc3c(NC(=O)c4ccc(F)cc4)cccc32)n1,-13,1.63
O=C(Nc1nc(-c2ccc(Cl)cc2)cs1)[C@@H]1CCCO1,-8,1.15
Cc1nc(Oc2ccc(-c3ccccc3)cc2Cl)c2cnn(C)c2n1,-6,0.79

SMILES,% Inhibition [%],Z score
O=C(N[C@@H](Cc1ccccc1)c1nnc(N2CCCCCC2)o1)c1cccs1,-16,2.63
COc1ccc(CNC(=O)c2noc3c2CCc2ccccc2-3)cc1,2,-0.19
CC1(C)CN(C(=O)c2ccc(CNS(C)(=O)=O)o2)C1(C)C,2,-0.26
COCC1(NC(=O)c2ccc3nc(-c4ccc(F)cc4)cn3c2)CCCC1,1,-0.11
CCc1nc(C(C)C)ccc1C(=O)N(C)Cc1nncn1C,-4,0.61
CN(CCO)[C@H]1CN(C(=O)c2ccccc2-c2ccccc2)C[C@@H]1O,7,-1.38
Cc1cccc(N2CCN(c3nc(-c4ccc(Oc5ccccc5)cc4)nc4ccccc34)C[C@@H]2C)c1,6,-0.89
O=C(Nc1ccccc1)C1CCN(C(=O)c2nc(N3CCOCC3)ncc2Cl)CC1,-12,2.17
O=C(NS(=O)(=O)c1ccc2nc[nH]c(=O)c2c1)C1CC2CCC1C2 (configuration not stated),9,-1.39
COCCn1nnc2c1CCN(C(=O)N[C@H]1CCc3ccccc31)C2,-5,0.93
CC1(C)C(O)CC1NC(=O)C1CCC(=O)CC1 (configuration not stated),-7,1.06
COCCc1noc([C@H](C)NC(=O)Cc2cccc(O)c2)n1,-12,1.52
c1ccc2[nH]c(Nc3nc4ccccc4s3)nc2c1,42,-2.98
O=C(C1COc2ccccc2O1)N1CCCC1c1nc2ccccc2s1 (configuration not stated),-14,1.77
CC(C)n1cnc(C(=O)NCC2CC(O)CN2Cc2ccccc2)c1 (configuration not stated),-2,0.42
COCc1nc(CNC(C)=O)n(-c2ccncc2)n1,9,-1.19
CN(C)C(=O)c1cc(OCc2ccccc2)no1,6,-0.91
Cc1[nH]ccc1C(=O)N1CCC2CCC(C1)N2C(C)C (configuration not stated),-1,0.1
CC1CCCCC1NC(=O)CC1CCS(=O)(=O)C1 (configuration not stated),-6,0.76
COCC(=O)N1CCCc2ccc(NC(=O)NCc3ccc(OC)c(OC)c3)cc21,-2,0.2
